Laboratory results: the supplement of paper PMC4967469
The IC50 comes from the fitted curve, where viability falls to half of the control; fits outside the tested doses are given as limits. The AUC spans the tested range (256-fold, ending at the top dose) of the same fit; the more sensitive the line, the further below 1. For some of these results: A top dose marked as inferred comes from the curve model; the source does not state it.

Assays:
Assay in all cases: Viability of human cancer cell lines after 72 h of drug (GDSC screen)
Dabrafenib = compound: CC(C)(C)c1nc(-c2cccc(NS(=O)(=O)c3c(F)cccc3F)c2F)c(-c2ccnc(N)n2)s1 [Dabrafenib]; conditions: top dose 10 µM
Description: (§1)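 Human cancer cell lines in 384-well plates, medium with 10% serum, drug for 72 h over a 256-fold dose range (nine 2-fold or five 4-fold steps up to the top dose). Adherent lines were fixed and stained with the nucleic acid dye Syto60, suspension lines read with resazurin; signal relative to control wells, capped at 0 and 100%. One two-parameter sigmoid per drug and line, fitted in a mixed model over all curves with the slope shared within a line.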

Axitinib = compound: CNC(=O)c1ccccc1Sc1ccc2c(/C=C/c3ccccn3)n[nH]c2c1 [Axitinib]; conditions: top dose 2 µM
Description: as §1

Vorinostat = compound: O=C(CCCCCCC(=O)Nc1ccccc1)NO [Vorinostat]; conditions: top dose 10 µM
Description: as §1

Methotrexate = compound: CN(Cc1cnc2nc(N)nc(N)c2n1)c1ccc(C(=O)N[C@@H](CCC(=O)O)C(=O)O)cc1 [Methotrexate]; conditions: top dose 0.2 µM
Description: as §1

SN-38 = compound: CCc1c2c(nc3ccc(O)cc13)-c1cc3c(c(=O)n1C2)COC(=O)[C@]3(O)CC [SN-38]; conditions: top dose 0.05 µM; top dose inferred
Description: as §1

DOV13 (ovary, adherent)
AUC (Dabrafenib): 0.56 | IC50 (Dabrafenib): 938 nM | AUC (Axitinib): 0.929 | IC50 (Axitinib): > 2000 nM | AUC (Vorinostat): 0.725 | IC50 (Vorinostat): 3040 nM | AUC (Methotrexate): 0.978 | IC50 (Methotrexate): > 200 nM | AUC (SN-38): 0.615 | IC50 (SN-38): 6.81 nM

RCC10RGB (kidney, adherent)
AUC (Dabrafenib): 0.946 | IC50 (Dabrafenib): > 10000 nM | AUC (Axitinib): 0.963 | IC50 (Axitinib): > 2000 nM | AUC (Vorinostat): 0.84 | IC50 (Vorinostat): > 10000 nM | AUC (Methotrexate): 0.972 | IC50 (Methotrexate): > 200 nM | AUC (SN-38): 0.705 | IC50 (SN-38): 21 nM

BHT-101 (thyroid, adherent)
AUC (Dabrafenib): 0.115 | IC50 (Dabrafenib): < 39.1 nM | AUC (Axitinib): 0.956 | IC50 (Axitinib): > 2000 nM | AUC (Vorinostat): 0.361 | IC50 (Vorinostat): 254 nM | AUC (Methotrexate): 0.985 | IC50 (Methotrexate): > 200 nM | AUC (SN-38): 0.558 | IC50 (SN-38): 4.53 nM

ES1 (Ewing sarcoma, adherent)
AUC (Dabrafenib): 0.754 | IC50 (Dabrafenib): 3330 nM | AUC (Axitinib): 0.93 | IC50 (Axitinib): > 2000 nM | AUC (Vorinostat): 0.63 | IC50 (Vorinostat): 1420 nM | AUC (Methotrexate): 0.858 | IC50 (Methotrexate): 161 nM | AUC (SN-38): 0.326 | IC50 (SN-38): 1.03 nM

RERF-LC-MS (lung adenocarcinoma, adherent)
AUC (Dabrafenib): 0.938 | IC50 (Dabrafenib): > 10000 nM | AUC (Axitinib): 0.984 | IC50 (Axitinib): > 2000 nM | AUC (Vorinostat): 0.826 | IC50 (Vorinostat): 6260 nM | AUC (Methotrexate): 0.945 | IC50 (Methotrexate): > 200 nM | AUC (SN-38): 0.589 | IC50 (SN-38): 5.52 nM

697 (lymphoblastic leukaemia, suspension)
AUC (Dabrafenib): 0.439 | IC50 (Dabrafenib): 441 nM | AUC (Axitinib): 0.856 | IC50 (Axitinib): 1130 nM | AUC (Vorinostat): 0.427 | IC50 (Vorinostat): 412 nM | AUC (Methotrexate): 0.433 | IC50 (Methotrexate): 8.55 nM | AUC (SN-38): 0.487 | IC50 (SN-38): 2.9 nM

COLO-680N (oesophagus, adherent)
AUC (Dabrafenib): 0.98 | IC50 (Dabrafenib): > 10000 nM | AUC (Axitinib): 0.979 | IC50 (Axitinib): > 2000 nM | AUC (Vorinostat): 0.796 | IC50 (Vorinostat): 5700 nM | AUC (Methotrexate): 0.975 | IC50 (Methotrexate): > 200 nM | AUC (SN-38): 0.943 | IC50 (SN-38): > 50 nM

LAMA-84 (chronic myeloid leukaemia, suspension)
AUC (Dabrafenib): 0.94 | IC50 (Dabrafenib): > 10000 nM | AUC (Axitinib): 0.393 | IC50 (Axitinib): 63.1 nM | AUC (Vorinostat): 0.422 | IC50 (Vorinostat): 380 nM | AUC (Methotrexate): 0.488 | IC50 (Methotrexate): 11.6 nM | AUC (SN-38): 0.944 | IC50 (SN-38): > 50 nM

HCC-15 (lung squamous cell carcinoma, adherent)
AUC (Dabrafenib): 0.918 | IC50 (Dabrafenib): > 10000 nM | AUC (Axitinib): 0.927 | IC50 (Axitinib): > 2000 nM | AUC (Vorinostat): 0.663 | IC50 (Vorinostat): 2030 nM | AUC (Methotrexate): 0.974 | IC50 (Methotrexate): > 200 nM | AUC (SN-38): 0.886 | IC50 (SN-38): > 50 nM

AM-38 (glioma, semi-adherent)
AUC (Dabrafenib): 0.987 | IC50 (Dabrafenib): > 10000 nM | AUC (Axitinib): 0.983 | IC50 (Axitinib): > 2000 nM | AUC (Vorinostat): 0.755 | IC50 (Vorinostat): 3450 nM | AUC (Methotrexate): 0.918 | IC50 (Methotrexate): > 200 nM | AUC (SN-38): 0.76 | IC50 (SN-38): 17.9 nM

KNS-42 (glioma, adherent)
AUC (Dabrafenib): 0.909 | IC50 (Dabrafenib): > 10000 nM | AUC (Axitinib): 0.981 | IC50 (Axitinib): > 2000 nM | AUC (Vorinostat): 0.907 | IC50 (Vorinostat): > 10000 nM | AUC (Methotrexate): 0.983 | IC50 (Methotrexate): > 200 nM | AUC (SN-38): 0.771 | IC50 (SN-38): 23 nM

NCI-H661 (large cell lung carcinoma, adherent)
AUC (Dabrafenib): 0.937 | IC50 (Dabrafenib): > 10000 nM | AUC (Axitinib): 0.951 | IC50 (Axitinib): > 2000 nM | AUC (Vorinostat): 0.664 | IC50 (Vorinostat): 1980 nM | AUC (Methotrexate): 0.98 | IC50 (Methotrexate): > 200 nM | AUC (SN-38): 0.724 | IC50 (SN-38): 15.7 nM

CADO-ES1 (Ewing sarcoma, suspension)
AUC (Dabrafenib): 0.958 | IC50 (Dabrafenib): > 10000 nM | AUC (Axitinib): 0.986 | IC50 (Axitinib): > 2000 nM | AUC (Vorinostat): 0.687 | IC50 (Vorinostat): 2110 nM | AUC (Methotrexate): 0.925 | IC50 (Methotrexate): > 200 nM | AUC (SN-38): 0.538 | IC50 (SN-38): 3.97 nM

MHH-CALL-2 (B-cell leukaemia, suspension)
AUC (Dabrafenib): 0.997 | IC50 (Dabrafenib): > 10000 nM | AUC (Axitinib): 0.989 | IC50 (Axitinib): > 2000 nM | AUC (Vorinostat): 0.713 | IC50 (Vorinostat): 2070 nM | AUC (Methotrexate): 0.857 | IC50 (Methotrexate): 99.4 nM | AUC (SN-38): 0.481 | IC50 (SN-38): 2.8 nM

LB831-BLC (bladder, adherent)
AUC (Dabrafenib): 0.979 | IC50 (Dabrafenib): > 10000 nM | AUC (Axitinib): 0.987 | IC50 (Axitinib): > 2000 nM | AUC (Vorinostat): 0.872 | IC50 (Vorinostat): 9770 nM | AUC (Methotrexate): 0.956 | IC50 (Methotrexate): > 200 nM | AUC (SN-38): 0.697 | IC50 (SN-38): 11.3 nM

SR (lymphoid neoplasm, suspension)
AUC (Dabrafenib): 0.913 | IC50 (Dabrafenib): > 10000 nM | AUC (Axitinib): 0.883 | IC50 (Axitinib): 1770 nM | AUC (Vorinostat): 0.487 | IC50 (Vorinostat): 578 nM | AUC (Methotrexate): 0.393 | IC50 (Methotrexate): 6.56 nM | AUC (SN-38): 0.364 | IC50 (SN-38): 1.38 nM

NCI-H2110 (non-small cell lung carcinoma, adherent)
AUC (Dabrafenib): 0.978 | IC50 (Dabrafenib): > 10000 nM | AUC (Axitinib): 0.946 | IC50 (Axitinib): > 2000 nM | AUC (Vorinostat): 0.759 | IC50 (Vorinostat): 3570 nM | AUC (Methotrexate): 0.904 | IC50 (Methotrexate): > 200 nM | AUC (SN-38): 0.687 | IC50 (SN-38): 10.6 nM

OCUM-1 (stomach, adherent)
AUC (Dabrafenib): 0.967 | IC50 (Dabrafenib): > 10000 nM | AUC (Axitinib): 0.924 | IC50 (Axitinib): > 2000 nM | AUC (Vorinostat): 0.627 | IC50 (Vorinostat): 1450 nM | AUC (Methotrexate): 0.987 | IC50 (Methotrexate): > 200 nM | AUC (SN-38): 0.698 | IC50 (SN-38): 12 nM

GA-10 (Burkitt lymphoma, suspension)
AUC (Dabrafenib): 0.975 | IC50 (Dabrafenib): > 10000 nM | AUC (Axitinib): 0.969 | IC50 (Axitinib): > 2000 nM | AUC (Vorinostat): 0.547 | IC50 (Vorinostat): 820 nM | AUC (Methotrexate): 0.869 | IC50 (Methotrexate): 138 nM | AUC (SN-38): 0.92 | IC50 (SN-38): > 50 nM

MS751 (cervix, adherent)
AUC (Dabrafenib): 0.989 | IC50 (Dabrafenib): > 10000 nM | AUC (Axitinib): 0.951 | IC50 (Axitinib): > 2000 nM | AUC (Vorinostat): 0.653 | IC50 (Vorinostat): 1600 nM | AUC (Methotrexate): 0.99 | IC50 (Methotrexate): > 200 nM | AUC (SN-38): 0.558 | IC50 (SN-38): 4.45 nM

VA-ES-BJ (soft tissue, adherent)
AUC (Dabrafenib): 0.977 | IC50 (Dabrafenib): > 10000 nM | AUC (Axitinib): 0.888 | IC50 (Axitinib): > 2000 nM | AUC (Vorinostat): 0.614 | IC50 (Vorinostat): 1310 nM | AUC (Methotrexate): 0.974 | IC50 (Methotrexate): > 200 nM | AUC (SN-38): 0.644 | IC50 (SN-38): 8.04 nM

FLO-1 (oesophagus, adherent)
AUC (Dabrafenib): 0.792 | IC50 (Dabrafenib): 6990 nM | AUC (Axitinib): 0.922 | IC50 (Axitinib): > 2000 nM | AUC (Vorinostat): 0.622 | IC50 (Vorinostat): 1570 nM | AUC (Methotrexate): 0.882 | IC50 (Methotrexate): > 200 nM | AUC (SN-38): 0.878 | IC50 (SN-38): > 50 nM

SUP-B8 (B-cell leukaemia, suspension)
AUC (Dabrafenib): 0.979 | IC50 (Dabrafenib): > 10000 nM | AUC (Axitinib): 0.934 | IC50 (Axitinib): > 2000 nM | AUC (Vorinostat): 0.54 | IC50 (Vorinostat): 802 nM | AUC (Methotrexate): 0.754 | IC50 (Methotrexate): 66.7 nM | AUC (SN-38): 0.7 | IC50 (SN-38): 11.3 nM

CGTH-W-1 (thyroid, adherent)
AUC (Dabrafenib): 0.926 | IC50 (Dabrafenib): > 10000 nM | AUC (Axitinib): 0.141 | IC50 (Axitinib): 9.49 nM | AUC (Vorinostat): 0.589 | IC50 (Vorinostat): 1090 nM | AUC (Methotrexate): 0.556 | IC50 (Methotrexate): 17.7 nM | AUC (SN-38): 0.599 | IC50 (SN-38): 5.82 nM

KARPAS-422 (B-cell lymphoma, suspension)
AUC (Dabrafenib): 0.851 | IC50 (Dabrafenib): 7510 nM | AUC (Axitinib): 0.971 | IC50 (Axitinib): > 2000 nM | AUC (Vorinostat): 0.619 | IC50 (Vorinostat): 1320 nM | AUC (Methotrexate): 0.916 | IC50 (Methotrexate): > 200 nM | AUC (SN-38): 0.838 | IC50 (SN-38): 33.2 nM
